Test results reported in article PMC9911399, “Two distinct binding modes provide the RNA-binding protein RbFox with extraordinary sequence specificity”.
Changes are numbered by the printed parent chain; changes in the protein carry UniProt numbers. Some of the results follow.

T1: RBFOX1 RRM (Homo sapiens, UniProt Q9NWB1 109-208)
T1 sequence: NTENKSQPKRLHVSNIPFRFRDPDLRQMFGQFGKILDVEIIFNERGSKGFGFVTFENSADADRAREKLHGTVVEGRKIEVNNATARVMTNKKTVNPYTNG

B1: CCGCACA (DNA:RNA)
RNA: GGGAGACCGGAAUUCAGAUUGUCCCCGCACAUUAAAUCCCGUCGUAGCCACCA
DNA 1: CAATCTGAATTCCGGTCTCCC
DNA 2: TGGTGGCTACGACGGGATT
B2: AGCUCGC (DNA:RNA)
RNA: GGGAGACCGGAAUUCAGAUUGUCCAGCUCGCUUAAAUCCCGUCGUAGCCACCA
DNA 1: CAATCTGAATTCCGGTCTCCC
DNA 2: TGGTGGCTACGACGGGATT
B3: CUUAUAA (DNA:RNA)
RNA: B1 RNA with C26U, G27U, C28A, A29U, C30A
DNA 1: CAATCTGAATTCCGGTCTCCC
DNA 2: TGGTGGCTACGACGGGATT
B4: UGCGGGA (DNA:RNA)
RNA: B2 RNA with A25U, U28G, C29G, C31A
DNA 1: CAATCTGAATTCCGGTCTCCC
DNA 2: TGGTGGCTACGACGGGATT
B5: GGCGGUU (DNA:RNA)
RNA: B2 RNA with A25G, U28G, C29G, G30U, C31U
DNA 1: CAATCTGAATTCCGGTCTCCC
DNA 2: TGGTGGCTACGACGGGATT
B6: AUGCUGA (DNA:RNA)
RNA: B1 RNA with C25A, C26U, A29U, C30G
DNA 1: CAATCTGAATTCCGGTCTCCC
DNA 2: TGGTGGCTACGACGGGATT
B7: UACUUCU (DNA:RNA)
RNA: B2 RNA with A25U, G26A, C29U, G30C, C31U
DNA 1: CAATCTGAATTCCGGTCTCCC
DNA 2: TGGTGGCTACGACGGGATT
B8: UACCUUG (DNA:RNA)
RNA: B2 RNA with A25U, G26A, U28C, C29U, G30U, C31G
DNA 1: CAATCTGAATTCCGGTCTCCC
DNA 2: TGGTGGCTACGACGGGATT
B9: CUGCUCG (DNA:RNA)
RNA: B1 RNA with C26U, A29U, A31G
DNA 1: CAATCTGAATTCCGGTCTCCC
DNA 2: TGGTGGCTACGACGGGATT
B10: CGGUCCG (DNA:RNA)
RNA: B2 RNA with A25C, C27G, G30C, C31G
DNA 1: CAATCTGAATTCCGGTCTCCC
DNA 2: TGGTGGCTACGACGGGATT
B11: UCGGGCG (DNA:RNA)
RNA: B1 RNA with C25U, C28G, A29G, A31G
DNA 1: CAATCTGAATTCCGGTCTCCC
DNA 2: TGGTGGCTACGACGGGATT
B12: UAAUAUG (DNA:RNA)
RNA: B2 RNA with A25U, G26A, C27A, C29A, G30U, C31G
DNA 1: CAATCTGAATTCCGGTCTCCC
DNA 2: TGGTGGCTACGACGGGATT
B13: AGCACAC (DNA:RNA)
RNA: B2 RNA with U28A, G30A
DNA 1: CAATCTGAATTCCGGTCTCCC
DNA 2: TGGTGGCTACGACGGGATT
B14: GCUACGC (DNA:RNA)
RNA: B2 RNA with A25G, G26C, C27U, U28A
DNA 1: CAATCTGAATTCCGGTCTCCC
DNA 2: TGGTGGCTACGACGGGATT
B15: GAAUGUA (DNA:RNA)
RNA: B2 RNA with A25G, G26A, C27A, C29G, G30U, C31A
DNA 1: CAATCTGAATTCCGGTCTCCC
DNA 2: TGGTGGCTACGACGGGATT
B16: UGGGUCA (DNA:RNA)
RNA: B1 RNA with C25U, C26G, C28G, A29U
DNA 1: CAATCTGAATTCCGGTCTCCC
DNA 2: TGGTGGCTACGACGGGATT
B17: AUGUGAA (DNA:RNA)
RNA: B2 RNA with G26U, C27G, C29G, G30A, C31A
DNA 1: CAATCTGAATTCCGGTCTCCC
DNA 2: TGGTGGCTACGACGGGATT
B18: CUCAAUG (DNA:RNA)
RNA: B1 RNA with C26U, G27C, C28A, C30U, A31G
DNA 1: CAATCTGAATTCCGGTCTCCC
DNA 2: TGGTGGCTACGACGGGATT
B19: GUACUCA (DNA:RNA)
RNA: B1 RNA with C25G, C26U, G27A, A29U
DNA 1: CAATCTGAATTCCGGTCTCCC
DNA 2: TGGTGGCTACGACGGGATT
B20: AUCUGUA (DNA:RNA)
RNA: B2 RNA with G26U, C29G, G30U, C31A
DNA 1: CAATCTGAATTCCGGTCTCCC
DNA 2: TGGTGGCTACGACGGGATT
B21: GGAUUGG (DNA:RNA)
RNA: B2 RNA with A25G, C27A, C29U, C31G
DNA 1: CAATCTGAATTCCGGTCTCCC
DNA 2: TGGTGGCTACGACGGGATT
B22: AUGAGGG (DNA:RNA)
RNA: B2 RNA with G26U, C27G, U28A, C29G, C31G
DNA 1: CAATCTGAATTCCGGTCTCCC
DNA 2: TGGTGGCTACGACGGGATT
B23: GUUAUUU (DNA:RNA)
RNA: GGGAGACCGGAAUUCAGAUUGUCCGUUAUUUUUAAAUCCCGUCGUAGCCACCA
DNA 1: CAATCTGAATTCCGGTCTCCC
DNA 2: TGGTGGCTACGACGGGATT
B24: GCGCUCA (DNA:RNA)
RNA: B1 RNA with C25G, A29U
DNA 1: CAATCTGAATTCCGGTCTCCC
DNA 2: TGGTGGCTACGACGGGATT
B25: CUGGAUG (DNA:RNA)
RNA: B1 RNA with C26U, C28G, C30U, A31G
DNA 1: CAATCTGAATTCCGGTCTCCC
DNA 2: TGGTGGCTACGACGGGATT
B26: UUGAGAC (DNA:RNA)
RNA: B23 RNA with G25U, U27G, U29G, U30A, U31C
DNA 1: CAATCTGAATTCCGGTCTCCC
DNA 2: TGGTGGCTACGACGGGATT
B27: ACGCGUA (DNA:RNA)
RNA: B1 RNA with C25A, A29G, C30U
DNA 1: CAATCTGAATTCCGGTCTCCC
DNA 2: TGGTGGCTACGACGGGATT
B28: CCUAUCG (DNA:RNA)
RNA: B1 RNA with G27U, C28A, A29U, A31G
DNA 1: CAATCTGAATTCCGGTCTCCC
DNA 2: TGGTGGCTACGACGGGATT
B29: GCCAGUC (DNA:RNA)
RNA: B23 RNA with U26C, U27C, U29G, U31C
DNA 1: CAATCTGAATTCCGGTCTCCC
DNA 2: TGGTGGCTACGACGGGATT
B30: CAGCGAG (DNA:RNA)
RNA: B1 RNA with C26A, A29G, C30A, A31G
DNA 1: CAATCTGAATTCCGGTCTCCC
DNA 2: TGGTGGCTACGACGGGATT
B31: CUUGAGG (DNA:RNA)
RNA: B1 RNA with C26U, G27U, C28G, C30G, A31G
DNA 1: CAATCTGAATTCCGGTCTCCC
DNA 2: TGGTGGCTACGACGGGATT

target: T1, RBFOX1 RRM; test: EMSA; HiTS-Eq, 1 nM pool, 10 min; buffer printed only for the single-RNA assays: 10 mM Tris pH 7.5, 150 mM NaCl, 3.4 mM EDTA, 0.001% NP-40, 30 C; conditions: tags: His6 N-terminal (pET28a); label: 5' 32P
How it was run: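 A pool of RNA with 7 randomized nucleotides, 5′-radiolabelled and with DNA-annealed flanks, was equilibrated at 1 nM for 10 min in 50 µL with purified RbFox RRM, wild type or mutant, across increasing protein concentrations. Free RNA was separated by 8% native PAGE, excised, reverse-transcribed, barcoded by PCR and sequenced. Relative association constants were obtained from read-count changes of each RNA species versus the control reaction and normalised to the cognate motif.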

Binder | binding signal
B1 | 0.0109 KA relative to UGCAUGU
B2 | 0.0182 KA relative to UGCAUGU
B3 | 0.00174 KA relative to UGCAUGU
B4 | 0.00758 KA relative to UGCAUGU
B5 | 0.0237 KA relative to UGCAUGU
B6 | 0.0196 KA relative to UGCAUGU
B7 | 0.00405 KA relative to UGCAUGU
B8 | 0.0131 KA relative to UGCAUGU
B9 | 0.0406 KA relative to UGCAUGU
B10 | 0.0125 KA relative to UGCAUGU
B11 | 0.00968 KA relative to UGCAUGU
B12 | 0.0114 KA relative to UGCAUGU
B13 | 0.00479 KA relative to UGCAUGU
B14 | 0.0169 KA relative to UGCAUGU
B15 | 0.0125 KA relative to UGCAUGU
B16 | 0.0232 KA relative to UGCAUGU

Binder | binding signal
B17 | 0.00694 KA relative to UGCAUGU
B18 | 0.00378 KA relative to UGCAUGU
B19 | 0.00475 KA relative to UGCAUGU
B20 | 0.00557 KA relative to UGCAUGU
B21 | 0.0233 KA relative to UGCAUGU
B22 | 0.0104 KA relative to UGCAUGU
B23 | 0.00975 KA relative to UGCAUGU
B24 | 0.0106 KA relative to UGCAUGU
B25 | 0.0353 KA relative to UGCAUGU
B26 | 0.00439 KA relative to UGCAUGU
B27 | 0.00319 KA relative to UGCAUGU
B28 | 0.00527 KA relative to UGCAUGU
B29 | 0.0151 KA relative to UGCAUGU
B30 | 0.00935 KA relative to UGCAUGU
B31 | 0.00861 KA relative to UGCAUGU
